Results: PubChem BioAssay (NCI)
Where “and” joins values, the source holds several entries; their conditions need not be identical. Equal entries are not always repeated.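 How tested: cells in 96-well plates exposed to compound for 48 hours at five concentrations. Here, GI50 denotes the concentration required for 50% inhibition of growth. TGI marks complete inhibition of growth.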 Peptide text beside a SMILES is read from it. * marks the point of attachment. Boc = CC(C)(C)OC(=O)*; OBn = c1ccc(CO*)cc1

Tested on: NCI-H322M lung
Assay: NCI anticancer screen, dose series, 48 h

Row | Compound | TGI | GI50
1 | COc1ccc(C(=O)OC2C=COC(C)C2OC(=O)c2ccc(OC)cc2)cc1 (centres undefined) | > 100 µM | –
2 | CCC1=CC2Cc3nc4cc(Cl)ccc4c(N)c3C(C1)C2 (centres undefined) | 17.2 µM | –
3 | O=C1c2ccccc2-c2ccc(N=Nc3c(O)ccc4ccccc34)cc21 | > 100 µM | –
4 | NC(CCP(=O)(O)CCC1C=CC=CC1)C(=O)O (centres undefined) | > 100 µM | –
5 | CC(=O)Nc1c(C)ccc2c1C(=O)c1ccccc1C2=O | > 100 µM | –
6 | O=C(O)c1ccc2c(c1)CC1(C2)Cc2ccccc2C1=O (centres undefined) | > 100 µM | –
7 | CC1=C2C[C@H]3[C@@H](CC=C4C[C@@H](O)CC[C@@]43C)[C@@H]2CC[C@]12O[C@@H]1C[C@H](C)CN[C@H]1[C@H]2C | > 50 µM and 45.3 µM | > 50 µM and 18.9 µM
8 | COC(=O)C12CC(c3ccccc31)C1C(=O)OC(=O)C12 (centres undefined) | > 100 µM | –
9 | COC1OC(C)C(O)CC1OS(=O)(=O)c1ccc(C)cc1 (centres undefined) | > 100 µM | –
10 | NC(=O)c1ccc2c(-c3ccnc(NCCCO)n3)c(-c3ccc(F)cc3)nn2c1 | > 25 µM | > 25 µM
11 | C=C1CC(C)(COc2ccc3ccc(=O)oc3c2)OC1=O (centres undefined) | 26.4 µM | –
12 | CC[O-].CC[O-].O=C1C(c2ccccc2)=C([O-])c2ccccc21.O=C1C(c2ccccc2)=C([O-])c2ccccc21.[Ti+4] | > 100 µM | > 100 µM
13 | Nc1cn(Cc2ccccc2)c2nc(/C=C3/C=CC=CC3=O)c(O)n12 | > 100 µM | –
14 | COc1ccc(CNc2c3ccccc3nc3ccc(OC)cc23)cc1 | 11 µM | 3.04 µM
15 | N#CC(Nc1ccccc1)c1ccc(C(C#N)Nc2ccccc2)cc1 (centres undefined) | > 100 µM | –
16 | COC(=O)C12C(=O)O[C@H](C)C1(O)C(C)C(=O)N2C (some centres undefined) | > 100 µM | –
17 | O=C(N/N=C/c1ccccc1Cl)c1ccccc1Nc1ccnc(C(F)(F)F)c1 | 4.86 µM | 0.58 µM
18 | O=C(Nc1ccc(F)cc1F)c1cc(Br)ccc1O | > 100 µM | 3.03 µM
19 | Cc1ccc(S(=O)(=O)NC2C(=O)c3ccccc3C(=O)C2n2cnc3ccccc32)cc1 (centres undefined) | > 100 µM | –
20 | Cc1ccc(SCC(CF)OCn2cc(F)c(=O)[nH]c2=O)cc1 (centres undefined) | > 100 µM | –
21 | C(=NCc1ccccc1)c1ccccc1-c1ccccc1C=NCc1ccccc1 | > 10 µM | –
22 | COc1ccc(-c2c(CN3CCOCC3)sc3nc4ccccc4n23)cc1 | 97.8 µM | –
23 | O=c1c2cc([N+](=O)[O-])ccc2n2n1Cc1ccccc1C2 | > 100 µM | –
24 | CCc1nc(N)nc(C(=O)NCCNC(=O)c2nc(N)nc(CC)c2C)c1C | > 100 µM | –
25 | Cc1cc(C)nc(NS(=O)(=O)c2ccc(Nc3c4ccc(Cl)cc4nc4c(C(=O)Nc5ccc(S(=O)(=O)N=C(N)N)cc5)cccc34)cc2)n1 | > 100 µM | –

Row | Compound | TGI | GI50
26 | CC1=CC(=O)C(=O)C2=C1OC1(C2)C(C)CCC2C3(C)CCC(O)C(C)(C)C3CCC21C (centres undefined) | 55.8 µM | –
27 | COc1cc(C(c2cc3c(cc2O)OCO3)N2CCCCC2)cc(OC)c1OC (centres undefined) | > 66.4 µM | –
28 | CCCCCCCCCCCCC(O)C1CCC(C(O)CCCCCCC(O)CCCCCCCC2=CC(C)OC2=O)O1 (centres undefined) | > 100 µM | –
29 | COc1ccc2cc3[n+](cc2c1OC)CCc1cc(O)c(O)cc1-3 | > 100 µM | –
30 | C=C(Br)CN(C(C)=O)C1CCCCC1 | > 100 µM | –
31 | NNc1nc2ccccc2s1 | > 100 µM | –
32 | CN(C)CCCCN1c2ccccc2Sc2cc(N=[N+]=[N-])ccc21 | 8.79 µM | –
33 | Cc1cc(N2CCN(c3ccnc4cc(Cl)ccc34)CC2)nc(NC2CCCCC2)n1 | 16 µM | 4.08 µM
34 | C[C@H]1C[C@H](C)c2ccccc2N(C)C1=Nc1ccccc1 | > 100 µM | –
35 | O=C(Nc1cc[c]([Sb](=[O])([OH])[OH])cc1)c1ccccc1 | > 100 µM | > 100 µM
36 | C#C[C@]1(O)CCC2C3CCc4cc(Oc5nc(F)nc(-c6c7cc8ccccc8cc7c7n6CCS7)n5)ccc4C3CCC21C (some centres undefined) | > 100 µM | –
37 | CN(C)C(=O)Nc1cc2c3c(c1)CCCN3CCC2 | > 10 µM | –
38 | O=c1oc2ccccc2nc1/C=C(\O)c1ccc([N+](=O)[O-])cc1 | > 100 µM | –
39 | COC(=O)C(=O)C(C#N)c1ccc(CC#N)cc1 (centres undefined) | > 100 µM | –
40 | Cc1cc(NCCCCCCCCCC[n+]2c(C)cc(N)c3ccccc32)c2ccccc2n1 | 18.4 µM | –
41 | CC(=O)OC1COC(n2c(-c3ccc(Cl)cc3)cc(-c3ccccc3)c(C#N)c2=S)C(OC(C)=O)C1OC(C)=O (centres undefined) | > 100 µM | –
42 | COc1c(Cl)c2c(c(OC)c1OC)-c1ccc(SC)c(=O)cc1[C@@H](NC(=O)OCC(F)(F)F)CC2 | > 100 µM | < 0.01 µM
43 | Cc1cccc(C)c1NC(=O)CCc1nnc2s/c(=C\c3ccc(Cl)cc3)c(=O)n12 | > 100 µM | –
44 | O=C1c2ccccc2C2=Nc3ccncc3CN12 | > 100 µM | –
45 | CCOC(=O)C(NC(=O)CC(C)C)(Nc1ccc(S(=O)(=O)Nc2nc(C)cc(C)n2)cc1)C(F)(F)F (centres undefined) | > 100 µM | –
46 | COC(=O)c1ccccc1/C=C1\Cc2cc(C)cc(C)c2C1=O | > 100 µM | –
47 | C=C1C(=O)[C@@]23CC1C(O)[C@@H](OC(C)=O)[C@@H]2C1(C)C(OC(C)=O)C[C@@H](OC(C)=O)C(C)(C)[C@@H]1C[C@H]3OC(C)=O (some centres undefined) | > 10 µM and 29.4 µg/mL | > 10 µM and 15.8 µg/mL
48 | COc1cccc2c(Nc3ccc(S(=O)(=O)NC(C)=O)cc3)c3ccc([N+](=O)[O-])cc3nc12 | > 100 µM | –
49 | Cc1ccc(NC(=O)CC(=O)n2nc(-c3ccccc3)c(N=Nc3ccccc3Cl)c2-c2ccccc2)cc1 | > 100 µM | –
50 | COc1cc(Nc2cnc3cc(F)c(F)cc3n2)cc(OC)c1 | > 100 µM | –

Row | Compound | TGI | GI50
51 | N#Cc1c(Cl)/c(=C/O)c(=O)n2c1nc1ccccc12 | > 100 µM | –
52 | O=c1[nH]c(=S)[nH]n1C(=S)n1[nH]c(=S)[nH]c1=O | > 100 µM | –
53 | COc1cc(NP(=O)(Oc2ccccc2)Oc2ccccc2)ccc1Nc1c2ccccc2nc2c1[nH]c1ccccc12 | > 70 µM | –
54 | Nc1nc(=S)[nH]c(C(=O)Nc2ccc(Cl)c(Cl)c2)c1-c1ccc(Cl)cc1 | > 100 µM | –
55 | CCN(CC)C(=S)SNCc1ccc(S(N)(=O)=O)cc1 | > 100 µM | –
56 | CC(NC(=O)CNC(=O)OC(C)(C)C)C(=O)NC(Cc1ccccc1)C(=O)OCc1ccccc1 (stereo not drawn) (Boc-Gly-Ala-Phe-OBn; configuration not given here) | > 100 µM | –
57 | Cn1c(NS(=O)(=O)c2ccccc2)nc2ccccc21 | > 100 µM | –
58 | O=C(CCc1ccc(O)cc1)NCCc1cccc(OCc2ccccc2)c1 | > 100 µM | –
59 | CCN(CC)CCNC(=O)c1nn(C)c(=S)[nH]c1=S | > 100 µM | –
60 | NC1CCCCC1N.O=S(=O)([O-])CCCN1CCOCC1.O=S(=O)([O-])CCCN1CCOCC1.[Pt+4] | > 100 µM | 59.4 µM
61 | N#Cc1c(Cl)c2ccccc2n2c1nc1ccccc12 | > 100 µM | –
62 | CCCCCC(CO)C(O)(C(F)(F)F)C(F)(F)F (centres undefined) | > 10 µM | –
63 | CCCn1c(SCC)c2cc3cc4ccccc4cc3cc2c1-c1nc(F)nc(F)n1 | > 100 µM | –
64 | CN(C)c1ccc(/C=c2/c3ccccc3n3c2cc(C24CC5CC(CC(C5)C2)C4)[n+]3C)cc1 | 1.46 µM | –
65 | CSC1=N/C(=C\c2ccco2)C(=O)N1CN1CCCCC1 | > 100 µM | –
66 | COC(=O)C1=Cc2cc(OC)c(O)cc2[C@@H](c2ccc(O)c(OC)c2)[C@@H]1C(=O)OC | > 100 µM | –
67 | Cn1c(Nc2ccccc2)c(C=Nc2ccccc2)c(=O)n(C)c1=O | > 100 µM | –
68 | COc1cc(C2C3=C(COC3=O)Oc3cc4c(cc32)OCO4)ccc1OC(C)=O (centres undefined) | > 100 µM | –
69 | CC1(C)CCC[C@@]2(C)C1CC[C@H]1CC(O)C3(C)CCC12C3 (some centres undefined) | 31.5 µM | –
70 | Cc1cc2cc3c(C)cc(=O)oc3c(C)c2o1 | > 100 µM | –
71 | COC(=O)c1c2c(c(C)[n+]([O-])c1C)C(=O)C=C(NCc1ccc(OC)cc1)C2=O | 7.08 µM | 2.27 µM
72 | Cc1cc(I)cc(CN(C)CCN2CCCC2)c1O | > 100 µM | 63.2 µM
73 | C=CCN(CC=C)C(=O)c1cc(C)nc2c1c(=O)n(-c1ccccc1)c(=O)n2CC(O)CN1CCN(c2ncccn2)CC1 (centres undefined) | > 100 µM | > 100 µM
74 | COc1cccc(-c2nc3sccn3c2-c2ccnc(NCCNS(=O)(=O)c3ccccc3)c2)c1 | > 100 µM | 4.38 µM
75 | CC/C(=C(/CC)c1ccc(O)cc1)c1ccc([O-])cc1.CC/C(=C(/CC)c1ccc(O)cc1)c1ccc([O-])cc1.O=C([CH-]C(=O)c1ccccc1)c1ccccc1.O=C([CH-]C(=O)c1ccccc1)c1ccccc1.[Ti+4] | 38.6 µM | 14.8 µM

Row | Compound | TGI | GI50
76 | Cc1cccc(Cl)c1NC(=O)/C=C/c1ccccc1 | > 100 µM | –
77 | COC1=C(N2CC2)C(=O)c2nc3n(c2C1=O)CCC3 | 4.23 µM | –
78 | CN(C(=O)Cc1ccc(Cl)c(Cl)c1)[C@@H]1CCCC[C@H]1[N+]1(C)CC=CC1 | > 100 µM | –
79 | Cc1ccc(C(=O)C(Cl)C(Cl)c2ccc(C)cc2)cc1 (centres undefined) | 27.1 µM | –
80 | CCCCCCCCC/C=C1\CC(CO)(COC(=O)C2CCCCC2)OC1=O (centres undefined) | 0.46 µM | –
81 | COC(=O)c1ccc(N=NN(C)COc2ccc([N+](=O)[O-])cc2)cc1 | > 100 µM | –
82 | COc1ccc2cc(/C=N\NC(=O)Nc3cccc4ccccc34)ccc2c1 | > 100 µM | –
83 | c1cc(OCCN2CCCCC2)ccc1CNc1ccc2nc(CCC3CCCCC3)[nH]c2c1 | 10.2 µM | 2.87 µM
84 | CCN=c1cc2sc3cc(NCC)c(C)cc3nc-2cc1C | 10.1 µM | 2.02 µM
85 | COc1ccc(NC(C)=O)cc1C1CCC(=O)N1 (centres undefined) | > 100 µM | –
86 | c1ccc2c(c1)-c1ccccc1C2N1CC2CCC(CC2)C1 | 99.1 µM | –
87 | O=CN1N=C(c2ccc(Cl)cc2)CC1c1cccc(Nc2ccnc3cc(Cl)ccc23)c1 (centres undefined) | > 100 µM | 5.52 µM
88 | CSc1nc(NC(=O)O)c(N(C(C)=O)C(=O)O)c(=O)n1C | > 100 µM | –
89 | NC(=O)C(c1ccccc1)N1OC2C(=O)N(c3cccc4ccccc34)C(=O)C2C1c1c2ccccc2c(Cl)c2ccccc12 (centres undefined) | 39.7 µM | –
90 | COC1CC(OC2CCC3(C)C(CCC45CCC(C6=CC(=O)OC6)C(C)(CCC43)C5=O)C2)OC(C)C1O (centres undefined) | > 100 µM | –
91 | CC1=NN(c2nc(N)nc(CSCc3nc(N)nc(N(C)C)n3)n2)C(C)(C)C1 | > 100 µM | –
92 | Cn1nc(-c2ccccc2)nc1[N+](=O)[O-] | > 10 µM | –
93 | COC(=O)C12CC3CC(C1)CC(C(=O)OC)(C3)C2 | > 100 µM | –
94 | O=c1ccnc2c1ccc1[nH]cccc12 | > 100 µM | –
95 | Cc1nc2cc(N)c(F)cc2[nH]1 | > 100 µM | –
96 | CCOc1ccc(Nc2nc(-c3ccc4c(c3)NC(=O)CO4)cs2)cc1 | > 100 µM | 50.9 µM
97 | N#Cc1sc2c(c1OC(=O)c1cccs1)c(=O)n(-c1ccccc1)c(=S)n2-c1ccccc1 | > 100 µM | –
98 | CCCC(C)C[C@@H](C)CC(C)/C=C(\C)c1oc(=O)c(C)c(O)c1C (some centres undefined) (tested in a mixture with another compound) | 29.9 µM | –
99 | COc1cc(NCc2ccc3nc(OC)c(OC)nc3c2)cc(OC)c1OC | > 100 µM | –
